This note sets out measurements from article PMC4336329 (PLoS ONE, 2015).

The campaign covered roughly 310,000 compounds. About 14,000 (4.5%) showed an effect of 50% or more. The effect is printed as a negative number. Some of the results follow.
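Also: peak tail current of the secondary pulse compared with the same well before compound.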

Chain of human ether-à-go-go-related gene (hERG) potassium channel (Q12809 whole entry, looked up): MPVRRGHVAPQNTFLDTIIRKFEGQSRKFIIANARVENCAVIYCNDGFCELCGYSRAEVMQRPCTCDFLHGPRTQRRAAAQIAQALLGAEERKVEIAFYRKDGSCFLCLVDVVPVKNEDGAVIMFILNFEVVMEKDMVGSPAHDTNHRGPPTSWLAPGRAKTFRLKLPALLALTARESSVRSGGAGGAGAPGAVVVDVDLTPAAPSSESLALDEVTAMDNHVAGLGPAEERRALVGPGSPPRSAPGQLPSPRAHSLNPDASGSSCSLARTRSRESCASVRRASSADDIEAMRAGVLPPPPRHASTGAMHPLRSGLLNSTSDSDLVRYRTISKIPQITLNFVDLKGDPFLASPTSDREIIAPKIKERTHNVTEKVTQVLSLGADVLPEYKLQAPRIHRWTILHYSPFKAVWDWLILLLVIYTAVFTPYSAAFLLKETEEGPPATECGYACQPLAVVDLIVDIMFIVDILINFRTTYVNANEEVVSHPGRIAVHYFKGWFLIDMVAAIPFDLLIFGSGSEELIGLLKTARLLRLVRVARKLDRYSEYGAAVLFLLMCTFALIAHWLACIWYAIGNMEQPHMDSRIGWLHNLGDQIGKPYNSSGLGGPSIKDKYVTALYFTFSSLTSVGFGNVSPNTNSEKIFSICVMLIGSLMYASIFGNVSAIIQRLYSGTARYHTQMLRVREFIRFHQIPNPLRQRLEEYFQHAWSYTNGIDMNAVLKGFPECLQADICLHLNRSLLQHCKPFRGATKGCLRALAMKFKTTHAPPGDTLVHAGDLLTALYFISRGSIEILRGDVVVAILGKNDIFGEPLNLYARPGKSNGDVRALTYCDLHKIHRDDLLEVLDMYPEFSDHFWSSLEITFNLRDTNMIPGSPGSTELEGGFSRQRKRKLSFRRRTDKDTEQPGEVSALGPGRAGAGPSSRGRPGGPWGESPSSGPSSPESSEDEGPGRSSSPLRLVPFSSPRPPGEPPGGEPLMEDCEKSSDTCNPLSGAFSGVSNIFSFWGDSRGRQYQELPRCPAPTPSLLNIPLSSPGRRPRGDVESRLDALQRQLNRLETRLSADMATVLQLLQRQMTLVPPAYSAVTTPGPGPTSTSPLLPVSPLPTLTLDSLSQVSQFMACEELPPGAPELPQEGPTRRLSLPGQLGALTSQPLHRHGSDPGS

The assay concerns the target human ether-à-go-go-related gene (hERG) potassium channel (human, UniProt Q12809). Kind of assay: primary screen, population patch clamp on CHO cells stably expressing hERG.
In the case of `O=C(NC1CC1)C1CCN(C(=O)c2ccc(Cl)cc2Cl)CC1`, the “hERG current change (%, negative = inhibition) at 10uM” value is given as 7.57%.

As to `COc1ccc(C(=O)Oc2ccc(=O)n(-c3ccccc3)n2)cc1`, the “hERG current change (%, negative = inhibition) at 10uM” value was -13.5%.

With `O=C(COc1ccc(Cl)cc1)N1CCN(Cc2ccc3c(c2)OCO3)CC1`, the “hERG current change (%, negative = inhibition) at 10uM” value is -52.6%.

As to `CCOC(=O)N1CCN(C(=O)c2cccc(N3C(=O)NC4CC3(C)Oc3ccc(Cl)cc34)c2)CC1` (centres unmarked), the “hERG current change (%, negative = inhibition) at 10uM” value is -35.4%.

On to `COc1ccc(-n2nc(C(=O)NCC(=O)N3CCN(c4ccccn4)CC3)c3ccccc3c2=O)cc1OC`, for which the “hERG current change (%, negative = inhibition) at 10uM” value is recorded as -6.11%.

For the compound `CC1(C)C(=O)NCCN1C(=O)CSc1nccc(-c2ccc(Br)cc2)n1`, the “hERG current change (%, negative = inhibition) at 10uM” value was 5.16%.

In the case of `O=C(Cc1ccc([N+](=O)[O-])cc1)N/N=C/c1ccc([N+](=O)[O-])o1`, the “hERG current change (%, negative = inhibition) at 10uM” value was -64.7%.

Consider `C=CCn1c(CSCc2ccc(C)cc2)nnc1SCC(=O)NCc1ccccc1`, for which the “hERG current change (%, negative = inhibition) at 10uM” value is given as -44.1%.

As for `COc1cc(-c2cc(-c3nnco3)c3ccccc3n2)cc(OC)c1OC`, the “hERG current change (%, negative = inhibition) at 10uM” value was 1.39%.

On to `Cn1nccc1NC(=O)Nc1cccc([N+](=O)[O-])c1`, for which the “hERG current change (%, negative = inhibition) at 10uM” value came out at 5.97%.

For `Cc1ccc(SCCN)cc1C.Cl`, the “hERG current change (%, negative = inhibition) at 10uM” value was determined as 28.9%.

In the case of `CN(Cc1ccccc1)S(=O)(=O)c1ccccc1[N+](=O)[O-]`, the “hERG current change (%, negative = inhibition) at 10uM” value is listed as -5.27%.

As for `O=C(NCC(O)c1ccc2ccccc2c1)c1c(F)cccc1F` (centres unmarked), the “hERG current change (%, negative = inhibition) at 10uM” value is 11.8%.

Take `CC(NC(=O)C(=O)N1CCCCC1)C(c1cccs1)N1CCN(c2ccc(F)cc2)CC1` (centres unmarked): the “hERG current change (%, negative = inhibition) at 10uM” value is reported as -21.9%.

In the case of `O=C(C1CC(=O)N(C2CCCC2)C1)N1CCN(c2cccc(Cl)c2)CC1` (centres unmarked), the “hERG current change (%, negative = inhibition) at 10uM” value was -7.79%.

Take `CCN(CC)C(=O)N1CCN(C)CC1.O=C(O)CC(O)(CC(=O)O)C(=O)O`: the “hERG current change (%, negative = inhibition) at 10uM” value was found to be 23.2%.

In the case of `CCN(CC)S(=O)(=O)c1ccc2c(c1)nc(SC(C)C(N)=O)n2-c1ccc(OC)cc1` (centres unmarked), the “hERG current change (%, negative = inhibition) at 10uM” value is given as -51.7%.

Regarding `COc1cccc2c1OC1(C)CC2/C(=C(\C)O)C(=O)N1` (centres unmarked), the “hERG current change (%, negative = inhibition) at 10uM” value is 4.65%.

As to `CCOC(=O)C1CCN(C(=O)CN(c2cccc(C(F)(F)F)c2)S(C)(=O)=O)CC1`, the “hERG current change (%, negative = inhibition) at 10uM” value is given as -25.9%.

On to `CCOC(=O)CNC(=S)N(CCCN1CCCC1)Cc1cccs1`, for which the “hERG current change (%, negative = inhibition) at 10uM” value is on record as -53.6%.

For `CCn1c(=O)cc(OCC(=O)NC2CC2)c2ccccc21`, the “hERG current change (%, negative = inhibition) at 10uM” value turned out to be 12%.

Turning to `O=C(N1CCOCC1)N1CCN(S(=O)(=O)N2CCCCC2)CC1`, the “hERG current change (%, negative = inhibition) at 10uM” value is given as -2.05%.

`COc1cccc(C(=O)C2CCCN(Cc3cccc4c3OCO4)C2)c1` (centres unmarked): the “hERG current change (%, negative = inhibition) at 10uM” value is listed as -49.4%.

As to `CC(C)c1ccc(OCC(=O)NNC(=S)NC(=O)c2ccco2)c(Br)c1`, the “hERG current change (%, negative = inhibition) at 10uM” value was found to be 3.09%.

Turning to `Cc1cccn2c(=O)nc(SCC(=O)N3CCCCCC3)nc12`, the “hERG current change (%, negative = inhibition) at 10uM” value was -19.9%.

As to `O=C(O)Cc1ccc(NS(=O)(=O)c2ccc3ccccc3c2)cc1`, the “hERG current change (%, negative = inhibition) at 10uM” value is given as -48.2%.

Turning to `CCN(C(=O)COC(=O)c1cc(-c2ccccc2)nc2c1c(C)nn2-c1ccccc1)C1CCS(=O)(=O)C1` (centres unmarked), the “hERG current change (%, negative = inhibition) at 10uM” value is reported as 21.5%.

As for `Cc1ccnc(SCc2cc(=O)c(OC(=O)c3ccco3)co2)n1`, the “hERG current change (%, negative = inhibition) at 10uM” value worked out at 4.97%.

In the case of `COCCCN1CC(=O)N2C(c3ccccc3)c3[nH]c4ccccc4c3C[C@H]2C1=O` (some centres unmarked), the “hERG current change (%, negative = inhibition) at 10uM” value is recorded as -11.3%.

`Clc1ccc(OCc2nc(-c3ccccn3)no2)c(Br)c1`: the “hERG current change (%, negative = inhibition) at 10uM” value came to 0.556%.

Take `CC(C)Sc1nc2c(cnn2-c2ccc(F)cc2)c(=O)[nH]1`: the “hERG current change (%, negative = inhibition) at 10uM” value stood at 0.854%.

In the case of `Cc1ccccc1NC(=O)c1cnc2ccccn2c1=O`, the “hERG current change (%, negative = inhibition) at 10uM” value is -9.67%.

Consider `O=S(=O)(Nc1ccc(C(F)(F)F)cn1)c1ccccc1`, for which the “hERG current change (%, negative = inhibition) at 10uM” value turned out to be 11.3%.

`Cc1c(C(=O)N2CCOCC2)oc2ccc(Br)cc12`: the “hERG current change (%, negative = inhibition) at 10uM” value is -23.7%.

As for `CC1(C)Cc2c(C#N)c(N)n(-c3ccccc3)c(=S)c2CO1`, the “hERG current change (%, negative = inhibition) at 10uM” value turned out to be 2.55%.

Consider `COc1ccc(CN2CC(C(=O)NCCc3ccc(C)cc3)CC2=O)cc1` (centres unmarked), for which the “hERG current change (%, negative = inhibition) at 10uM” value is reported as -11.9%.

`CCOC(=O)Nc1cccc(OCC(=O)Nc2ccccc2OC)c1`: the “hERG current change (%, negative = inhibition) at 10uM” value is -1.38%.

For the compound `Cc1ccc(NC(=O)CCNC(=O)Cn2ccc3ccccc3c2=O)cc1F`, the “hERG current change (%, negative = inhibition) at 10uM” value was found to be 24%.

For the compound `Cc1cccc(C(=O)N2CCN(c3ncnc4c3cnn4-c3ccccc3)CC2)c1`, the “hERG current change (%, negative = inhibition) at 10uM” value was -19.4%.

On to `COc1ccc(OCC(=O)NC(=S)Nc2ccc(S(=O)(=O)Nc3cc(C)on3)cc2)cc1`, for which the “hERG current change (%, negative = inhibition) at 10uM” value worked out at 8.54%.

For the compound `CCCCOc1cccc(/C=C(\C#N)C(=O)NC2CC2)c1`, the “hERG current change (%, negative = inhibition) at 10uM” value is reported as -0.258%.

Regarding `O=C(OCCOCn1cc(Br)c(=O)[nH]c1=O)c1ccccc1`, the “hERG current change (%, negative = inhibition) at 10uM” value was found to be 1.66%.

Regarding `O=c1[nH]c(O)c(C=Nc2ccccc2Sc2ccccc2)c(=O)[nH]1`, the “hERG current change (%, negative = inhibition) at 10uM” value was 9.37%.

For the compound `Fc1ccccc1NC(=S)N1CCN(C/C=C/c2ccccc2)CC1`, the “hERG current change (%, negative = inhibition) at 10uM” value was -23.4%.
